From PubChem BioAssay AID1460 (National Center for Advancing Translational Sciences (NCATS), 2008)
About 5,800 (2.1%) of roughly 270,000 compounds were called active. Inconclusive results, whose numbers are uncertain, are shown with a selection of clear calls. Calls come from the whole dose curve; as a rule, active = well fitted inhibition curve with a large enough effect; inconclusive = small, poorly fitted or top-dose-only effect; inactive = flat fitted curve, though single readings scatter. Where the call is inconclusive, the potency comes from a doubtful curve fit.

Biological target: Microtubule-associated protein tau (Homo sapiens) (UniProt P10636)
Assay: qHTS for Inhibitors of Tau Fibril Formation, Thioflavin T Binding; note: nearly all actives have a fitted effect of over 55% in size
Settings: recombinant tau K18 P301L (four-repeat tau fragment), heparin-induced fibrillization, ThT fluorescence; series mostly up to 57.4 µM; activity, negative = inhibition: at the top concentration
Summary of the method: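 Tau K18 P301L fragment (15 uM unlabeled plus 0.24 uM Alexa 594-labeled) in 100 mM sodium acetate pH 7 with compound, fibrillization induced by 20 uM heparin for 6 hr at 37 C. Thioflavin T (30 uM) added, fluorescence read after 1 hr (ex 450, em 510 nm).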
% is set by controls: 0 for no effect and ±100 for the full control effect; potency is the fitted concentration of half-maximal effect; tags give direction and shape of the fitted curve.

Sequence of UniProt P10636 (P10636 whole entry, looked up): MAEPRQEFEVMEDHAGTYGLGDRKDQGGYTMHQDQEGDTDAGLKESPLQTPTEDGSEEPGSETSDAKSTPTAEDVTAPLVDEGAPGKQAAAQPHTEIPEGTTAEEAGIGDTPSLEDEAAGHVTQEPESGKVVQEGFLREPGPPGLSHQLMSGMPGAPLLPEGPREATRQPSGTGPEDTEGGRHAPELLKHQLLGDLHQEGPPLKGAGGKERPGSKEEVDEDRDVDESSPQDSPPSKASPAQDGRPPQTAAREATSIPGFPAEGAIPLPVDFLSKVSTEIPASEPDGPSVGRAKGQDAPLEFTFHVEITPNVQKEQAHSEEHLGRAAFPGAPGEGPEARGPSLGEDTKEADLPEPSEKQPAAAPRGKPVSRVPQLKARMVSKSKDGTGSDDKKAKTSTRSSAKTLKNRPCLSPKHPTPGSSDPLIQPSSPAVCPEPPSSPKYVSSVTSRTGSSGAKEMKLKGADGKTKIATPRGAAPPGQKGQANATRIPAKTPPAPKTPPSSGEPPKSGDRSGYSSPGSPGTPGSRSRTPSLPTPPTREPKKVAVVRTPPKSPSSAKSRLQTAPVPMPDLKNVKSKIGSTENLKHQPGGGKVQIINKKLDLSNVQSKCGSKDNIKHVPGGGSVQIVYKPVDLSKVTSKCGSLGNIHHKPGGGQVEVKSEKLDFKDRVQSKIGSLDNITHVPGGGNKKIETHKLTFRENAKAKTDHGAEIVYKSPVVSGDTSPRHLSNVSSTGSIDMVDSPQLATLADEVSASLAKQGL

Row | SMILES | Potency | activity, negative = inhibition
1 | CC(=O)c1ccc(NC(=O)c2cnn3ccccc23)cc1 | inconclusive: 17.8 µM [inhibitor, partial curve] | –
2 | COc1ccc(C2=CC(c3ccc(OC)c(OC)c3)NC(=S)N2)cc1 (stereo not given) | inconclusive: 11.2 µM [inhibitor, partial curve] | –
3 | Cc1c(C(=O)Nc2ccc(C(C)C)cc2)sc2nc[nH]c(=O)c12 | inconclusive: 17.8 µM [inhibitor, partial curve] | –
4 | Cc1ccc(/C=N/NC(=O)C2=NNC(c3ccccc3)(c3ccccc3)C2)c(O)c1 | inconclusive: 35.5 µM [inhibitor, single point] | –
5 | CC1CCN(S(=O)(=O)c2ccc3c(c2)CCN3C(=O)Nc2ccc(Br)cc2)CC1 | inconclusive: 6.31 µM [activator, partial curve, poor fit] | –
6 | Cc1c(O)c(CN2CCCC2)cc2c3c(c(=O)oc12)CCC3 | active: 12.6 µM | –
7 | CCN(CC)S(=O)(=O)c1cccc(-c2n[nH]c(=S)n2/N=C/c2ccc(C(=O)OC)cc2)c1 | inconclusive: 20 µM [inhibitor, single point] | –
8 | CC1CCN(S(=O)(=O)c2ccc3c(c2)N(CC(=O)NC(C)C)C(=O)CO3)CC1 | – | inactive: 1.56%
9 | Cc1ccc(N2NC(=O)/C(=C/c3ccc(-c4ccc(Cl)c(C(=O)O)c4)o3)C2=O)cc1 | inconclusive: 2.51 µM [inhibitor, partial curve] | –
10 | COc1ccc2c(c1)[nH]c1c(N3CCSCC3)ncnc12 | – | inactive: -22.7%
11 | CC(=O)Nc1cc(-c2ccccc2)nn1Cc1ccc(Cl)cc1 | inconclusive: 1.78 µM [inhibitor, full curve, poor fit] | –
12 | Cc1ccc(S(=O)(=O)OC[C@@H]2CN3[C@H](c4ccc(Br)cc4)[C@H](C)CC[C@H]3C(=O)O2)cc1 | – | inactive: -26.1% [at 11.5 µM]
13 | C/C(=N\NC(=O)c1ccccc1C)c1ccc(NC(=O)c2cccs2)cc1 | inconclusive: 10 µM [inhibitor, partial curve] | –
14 | Nc1nc(NC(=O)c2ccc(Cl)cc2)nn1-c1ccccc1 | – | inactive: 4.54%
15 | COc1ccccc1-c1nn2c(C(F)(F)F)nnc2s1 | – | inactive: -1.7%
16 | O=C(Nc1nc2ccc(S(=O)(=O)N3CCCCC3)cc2s1)c1ccncc1 | – | inactive: -0.416%
17 | Cc1cccc(C(=O)O/N=C(\c2ccccc2)c2cccnc2)c1 | inconclusive: 5.62 µM [inhibitor, partial curve, poor fit] | –
18 | C=CCNc1nc(N)c(C(=O)Nc2cc(C)on2)s1 | inconclusive: 17.8 µM [inhibitor, single point] | –
19 | COc1ccc(CCC(=O)NC2=NCCS2)cc1OC | – | inactive: -6.95%
20 | COc1ccc(/C=N/Nc2nc3ccccc3o2)cc1OC | inconclusive: 1.41 µM [inhibitor, full curve, poor fit] | –
21 | O=C(/C=C/c1ccco1)Nc1ccc(N2CCCC2)cc1 | active: 2.24 µM | –
22 | Cn1c(SCC(=O)c2ccc(F)cc2)nnc1-c1ccccc1Br | inconclusive: 1 µM [inhibitor, full curve, poor fit] | –
23 | Cc1ccc(/C=C2/SC(=S)N(CCCC(=O)Nc3ccc(O)cc3)C2=O)cc1 | inconclusive: 20 µM [inhibitor, partial curve, poor fit] | –

Row | SMILES | Potency | activity, negative = inhibition
24 | O=C(NC(=S)NCCOCc1ccc(Cl)cc1)c1cccnc1 | – | inactive: -0.0406%
25 | CCOC(=O)C1CCCN(Cc2nc(N)nc(Nc3ccc(OC)cc3)n2)C1 (stereo not given) | – | inactive: -7.01%
26 | Cc1ccccc1C(=O)N1CCc2cc(-c3nc(NC(=O)Cc4ccc5c(c4)OCO5)sc3C)ccc21 | – | inactive: 7.52%
27 | N#C/C(=C\c1cc(Cl)cc(Cl)c1)c1cccnc1 | inactive | –
28 | CC1CCCCN1c1cc(C#N)c(C#N)cc1[N+](=O)[O-] (stereo not given) | inconclusive: 8.91 µM [inhibitor, full curve] | –
29 | O=C1/C(=C/c2cccs2)SC(=S)N1c1cccc(O)c1 | active: 20 µM | –
30 | Cc1cc(C)cc(NC(=O)C2CCC(CNS(=O)(=O)c3ccc4c(c3)C(C)(C)C(=O)N4C)CC2)c1 (stereo not given) | – | inactive: -9.31%
31 | CCOC(=O)COc1ccc(Br)cc1/C=C\c1[nH]c(=O)[nH]c(=O)c1[N+](=O)[O-] | inconclusive: 12.6 µM [inhibitor, partial curve] | –
32 | CCOc1ccc(C(=O)Nc2cc(-c3cn4cccnc4n3)ccc2C)cc1OCC | – | inactive: -6.91%
33 | O=C(CSc1cn(CCNC(=O)c2ccc3ccccc3c2)c2ccccc12)NCc1ccco1 | inconclusive: 10 µM [inhibitor, partial curve] | –
34 | COc1ccc(Oc2cc(C(F)(F)F)nc(N(C)C)n2)cc1 | inconclusive: 22.4 µM [inhibitor, single point] | –
35 | O=C(NNC(=S)Nc1ccc(Cl)cc1Cl)c1ccc(N2CCOCC2)c([N+](=O)[O-])c1 | active: 5.01 µM | –
36 | Cc1cccc(NC(=O)NCCc2c[nH]c3ccccc23)c1 | inconclusive: 22.4 µM [inhibitor, partial curve] | –
37 | COc1ccc(-c2nc(Cn3c(SCc4ccccc4F)nc4ccncc43)c(C)o2)cc1OC | inconclusive: 39.8 µM [inhibitor, single point] | –
38 | CN(C)c1ccc(/C=N/NC(=O)c2ccccc2Cl)cc1 | inconclusive: 14.1 µM [inhibitor, partial curve] | –
39 | CCN(CC)c1ccc(/C=N/N=C(N)N)c(O)c1 | inconclusive: 25.1 µM [inhibitor, single point] | –
40 | Clc1cccc(-c2ccc(C=Nc3ccc(N4CCOCC4)cc3)o2)c1Cl | active: 12.6 µM | –
41 | Cc1snc(SCC(=O)c2ccc(Cl)cc2)c1C#N | inconclusive: 17.8 µM [inhibitor, partial curve] | –
42 | COc1ccc(CNC(=O)C2CCN(C(=O)N3CC(C)Oc4ccc(C)cc43)CC2)cc1 (stereo not given) | inconclusive: 39.8 µM [inhibitor, single point] | –
43 | COc1ccc(C2=C(C)C(=O)N(Cc3ccc(C(=O)Nc4cc(C)ccc4C)cc3)S2(=O)=O)cc1 | – | inactive: 1.84%
44 | COc1ccc(OCCCC(=O)Nc2ccc3c(c2)OCCO3)cc1 | inconclusive: 6.31 µM [inhibitor, partial curve] | –
45 | CCN(CC)S(=O)(=O)c1nnc(NC(=O)c2ccc(C(C)C)cc2)s1 | inconclusive: 14.1 µM [inhibitor, partial curve] | –
